# Data as given in PubChem BioAssay AID651820 (National Center for Advancing Translational Sciences (NCATS), 2012).
# In all, about 340,000 compounds went through this assay and about 12,000 (3.5%) were called active. The shares of active, inactive and inconclusive entries below differ from those in the screen. Calls come from the whole dose curve; as a rule, active = well fitted inhibition curve with a large enough effect; inconclusive = small, poorly fitted or top-dose-only effect, or another doubt; inactive = no such curve, though single readings can be large or run the other way. No potency is given beside an inconclusive call; the fits are too rough.
# Assay: qHTS Assay for Inhibitors of Hepatitis C Virus (HCV)
# Conditions: Huh7.5.1 HCVcc-Cre (HCVcc is cell-culture hepatitis C virus) infection, luciferase reporter, 44 h; series mostly up to 41.8 µM
# Outline: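 1,000 cells/well; 4 h culture; + compound; + HCVcc-Cre (~0.5 moi); 44 h; luciferase substrate, RT 15 min; read 15 sec.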
# Potency is the fitted concentration of half-maximal effect; tags give direction and shape of the fitted curve.
row,Structure (SMILES),Potency
1,COc1ccc(NC(=O)N2CCC(c3nc(-c4cccs4)no3)CC2)cc1,"inconclusive [inhibitor, partial curve]"
2,Cc1ccc(S(=O)(=O)N2CCN(C(=O)COC(=O)Cc3ccccc3)CC2)c(C)c1,"inconclusive [inhibitor, single point]"
3,COC(=O)c1ccc(OCC(O)CN2C(=O)c3ccccc3S2(=O)=O)cc1 (stereo not given),active: 5.01 µM
4,COc1ccc(/C=N\NC(=O)c2cc(O)c(O)c(O)c2)cc1CN1CCN(c2ccc(F)cc2)CC1,"inconclusive [inhibitor, single point]"
5,CCOC(=O)CSC1=C(C#N)C(c2ccccc2OC)CC(=O)N1 (stereo not given),"inconclusive [inhibitor, partial curve, poor fit]"
6,COC(=O)C1=C(C)N(c2ccccc2)C(=S)NC1c1ccccc1C(F)(F)F (stereo not given),"inconclusive [inhibitor, single point]"
7,CC(C)N1CCc2c(sc(NC(=O)c3cc(-c4cccs4)nc4ccccc34)c2C(N)=O)C1,active: 10 µM
8,CC1CC(NC2=NCCS2)CC(C)(C)C1 (stereo not given),inactive
9,COc1ccc(NC(=O)C(=O)NCC(=O)Nc2cc(OC)ccc2OC)cc1,inactive
10,COC(=O)c1cccnc1-n1c(=O)c2cccnc2n(Cc2ccc([N+](=O)[O-])cc2)c1=O,inactive
11,CCOc1ccc(-c2[nH]ncc2Oc2cccc(OC)c2)c(O)c1,"inconclusive [inhibitor, single point]"
12,COc1ccc(C(=O)N[C@H](C(=O)NC2CCCCC2)C(C)C)cc1,inactive
13,O=C(Oc1c(CN2CCOCC2)cc(Cl)c2cccnc12)c1ccccc1F,"inconclusive [inhibitor, full curve]"
14,O=C(NNC1OC(CO)C(O)C(O)C1O)c1cccc(Br)c1 (stereo not given),inactive
15,CCSc1nnc(NC(=O)CSc2nc3c(c(=O)n2-c2ccccc2OC)SCC3)s1,"inconclusive [inhibitor, single point]"
16,C(=C\c1nc(N2CCCCCC2)c2ccccc2n1)/c1ccccc1,"inconclusive [inhibitor, partial curve]"
17,Cc1cc(C)cc(N(CC(=O)NC2CCCC2)C(=O)CCC(=O)Nc2nc(C)cs2)c1,"inconclusive [inhibitor, partial curve]"
18,CC1CCc2c(sc3nc(C(C)(C)C)nc(N4CCN(C(=O)CCl)CC4)c23)C1 (stereo not given),"inconclusive [inhibitor, single point]"
19,COc1cc2cc(C#N)c(SCC(=O)N3CCOCC3)nc2cc1OC,"inconclusive [inhibitor, partial curve]"
20,Cc1ccc2[nH]c(CCN(C)C)c(CN3CCOCC3)c2c1,"inconclusive [inhibitor, single point]"
21,COc1ccc2sc(N(CCCN(C)C)C(=O)c3ccc(S(=O)(=O)N(C)C4CCCCC4)cc3)nc2c1,"inconclusive [inhibitor, single point]"
22,O=C(Nc1ccccc1N1CCCC1)C1CCN(S(=O)(=O)c2ccccc2C(F)(F)F)CC1,"inconclusive [inhibitor, single point]"
23,Cc1ccc(NC(=O)CN2C(=O)C3C4C=CC(C4)C3C2=O)cc1 (stereo not given),inactive

row,Structure (SMILES),Potency
1,O=C(COC(=O)Cn1cnc2ccccc21)Nc1ccc2c(c1)C(=O)c1ccccc1C2=O,"inconclusive [inhibitor, partial curve]"
2,Cc1ccc(C2/C=C\CC(NC(=O)OCC3c4ccccc4-c4ccccc43)CC(=O)N2Cc2ccccc2)cc1 (stereo not given),active: 17.8 µM
3,CCOC(=O)N1CCC(NC(=O)Cn2cc3c(n2)CCC(C)C3)CC1 (stereo not given),inactive
4,O=C(c1ccc(S(=O)(=O)c2ccccc2Cl)c([N+](=O)[O-])c1)N1CCN(Cc2ccccc2)CC1,"inconclusive [inhibitor, single point]"
5,Cc1ccc2nc(NC(=O)CSCC(=O)OCC(=O)c3ccccc3)sc2c1,inactive
6,COCCN=C1Sc2nc3ccc(C)cc3cc2CN1Cc1cccs1,inactive
7,O=C(OCC(=O)N1CCN(c2ccccc2)CC1)c1ncc(Cl)c(Cl)c1Cl,inactive
8,Nc1ccc2ncccc2c1,inactive
9,O=C(/C=C/c1ccc(S(=O)(=O)N2CCOCC2)cc1)Nc1ccc(F)c(F)c1F,"inconclusive [inhibitor, single point]"
10,Cc1cccc(C(=O)NCC(=O)NC(C)c2ccc(-n3ccnc3)cc2)c1 (stereo not given),inactive
11,Cn1c(N)c(C(=O)COc2ccc(Cl)cc2Cl)c(=O)n(C)c1=O,"inconclusive [inhibitor, partial curve]"
12,CCc1ccc(C2N(c3ccc(OC)cc3)C(=O)C3CCCN32)cc1 (stereo not given),inactive
13,Cc1nc2ccc(S(=O)(=O)NCC(=O)N3CCN(c4ccccc4)CC3)cc2s1,"inconclusive [inhibitor, single point]"
14,CC(C)c1ccc(NC2CCCN(C(=O)C3=NN(C)C(=O)CC3)C2)cc1 (stereo not given),inactive
15,CC(C(=O)Nc1ccc(Cl)cc1Cl)N1C(=O)NC2(CCCCCCC2)C1=O (stereo not given),"inconclusive [inhibitor, full curve]"
16,CCN(CC)CCNc1c2c(c(C#N)c3nc4ccccc4n13)CCCC2,"inconclusive [inhibitor, single point]"
17,CCC(C)(C)NC(=O)C(c1cccn1C)N(C(=O)Cn1nnc2ccccc21)c1ccc(F)cc1 (stereo not given),"inconclusive [inhibitor, single point]"
18,COc1ccc(CCN2CC(C(=O)NCCN3CCCC3=O)CCC2=O)cc1 (stereo not given),inactive
19,Cc1cccc(-n2nc3c(c2NC(=O)C(C)C)CSC3)c1,"inconclusive [inhibitor, single point]"
20,Cc1ccc2cc(C=C(C#N)C#N)c(Cl)nc2c1,"inconclusive [inhibitor, full curve, poor fit]"
21,Cc1ccc(C2=N/C(=C/c3cccs3)C(=O)N2Nc2ccccc2)cc1,active: 11.2 µM
22,Cc1cccc(/C=N/NC(=O)c2cc(Br)ccc2OCc2ccccc2)n1,"inconclusive [inhibitor, partial curve]"
